Test results: PubChem BioAssay AID485344 (National Center for Advancing Translational Sciences (NCATS), 2010)
Values joined by “and” are separate entries in the source; they are usually repeats but may differ in a detail not shown here. Equal entries are not always repeated. In all, about 340,000 compounds went through this assay and about 6,900 (2%) were called active. Rule as the data show it: active = inhibition above about 30%; inactive = below that, where a call was filed. Only a part is listed here, and it is no random draw. The source gives no active or inactive call for entries shown without one.

These molecules were tested against D(2) dopamine receptor (Homo sapiens) (UniProt P14416) (assay: HTS Assay for Allosteric Antagonists of the Human D2 Dopamine Receptor: Primary Screen for Antagonists). Settings: HEK293 TREx D2 cells, calcium flux, dopamine EC80; at 10 µM; stronger effect = higher value.
Method in brief: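 Measurement of antagonist activity uses fluorescent calcium dye in inducible HEK293 T-REx D2 cells: 10 s baseline, compound addition with 180 s read, EC80 dopamine addition with a further 180 s read.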
Also: 0% is about no effect.

Chain of UniProt P14416 (P14416 whole entry, looked up): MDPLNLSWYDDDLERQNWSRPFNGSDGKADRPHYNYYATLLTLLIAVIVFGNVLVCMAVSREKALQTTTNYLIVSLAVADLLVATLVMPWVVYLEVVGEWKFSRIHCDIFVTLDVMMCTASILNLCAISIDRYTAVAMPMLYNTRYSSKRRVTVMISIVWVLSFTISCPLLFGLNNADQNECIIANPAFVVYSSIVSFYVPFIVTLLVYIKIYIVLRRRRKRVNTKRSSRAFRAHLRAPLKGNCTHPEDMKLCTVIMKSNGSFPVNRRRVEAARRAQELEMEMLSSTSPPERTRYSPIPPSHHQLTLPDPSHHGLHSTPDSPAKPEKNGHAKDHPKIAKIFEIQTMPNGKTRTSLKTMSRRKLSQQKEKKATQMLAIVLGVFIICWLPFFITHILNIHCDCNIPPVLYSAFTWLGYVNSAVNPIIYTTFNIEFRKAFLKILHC

| SMILES | inhibition |
| --- | --- |
| Cc1oc(-c2ccccc2Cl)nc1CS(=O)(=O)CC(=O)NC(C)CCc1ccccc1 (stereo not drawn) | -1.34% |
| CC(Sc1nnnn1C1CC1)C(=O)N1CC(=O)Nc2ccccc21 (stereo not drawn) | active: 47% |
| COc1ccc(C(=O)Nc2nc3nc(C)c(Cl)c(=O)n3[nH]2)cc1 | 10.1% |
| COc1ccccc1N1CCN(Cc2cc(OC)c3c(c2)OCO3)CC1 | active: 85.7% |
| Cc1ccc2nc(Cl)c3cc(C(=O)NC4CCCCC4)sc3c2c1 | 17.6% |
| COc1ccc(NC(=O)CC2C(=O)N(c3cccc(OC)c3)C(=O)N2Cc2cccnc2)cc1 (stereo not drawn) | 3.3% |
| Cc1ccc(-n2c(CNc3ccc(F)cc3)nnc2SCC(=O)NCc2ccco2)cc1 | active: 33.9% |
| COc1ccc(OC)c(NC(=O)C(NS(=O)(=O)c2ccc3c(c2)CCCC(=O)N3)C(C)C)c1 (stereo not drawn) | 5.36% |
| Cc1ccc(-n2nc3c(N4CCC(C(=O)N(C)Cc5ccccc5)CC4)nnc(C)c3c2C)cc1 | -1.4% |
| Cc1ccc(C)c(S(=O)(=O)n2nc(C)c(S(=O)(=O)N3CCC(C)CC3)c2C)c1 | -0.0268% |
| CC(=O)Nc1ccc(S(=O)(=O)Nc2nc3n(n2)C(c2ccccc2)C=C(c2ccc(Cl)cc2)N3)cc1 (stereo not drawn) | 10.2% |
| O=C(NCCN1CCCCC1)c1ccc(Cn2c(SCc3ccc(F)cc3)nc3cccnc32)cc1 | 21.1% |
| CN(C)c1ccc(CN(Cc2ccco2)C(=O)c2ccc(F)cc2)cc1 | -1.72% |
| O=C(NCc1ccc2c(c1)OCO2)C1CCC(CNS(=O)(=O)c2cccc3nsnc23)CC1 (stereo not drawn) | active: 35% |
| COc1ccccc1CNC(=O)CCC(=O)N1Cc2ccccc2Oc2ncccc21 | 5.29% |
| CC(=O)Nc1cccc(NC(=O)Cc2csc(COc3cccc(C)c3)n2)c1 | 1.39% |
| COc1ccccc1N1CCN(S(=O)(=O)c2ccc(-n3cnnn3)cc2)CC1 | -14.4% |
| CCOC(=O)N1CCc2c(sc3c2c(=O)n(-c2ccc(CC)cc2)c(=O)n3Cc2cccc(OC)c2)C1 | 12.2% |
| CCc1ccc(S(=O)(=O)N(C(C)=O)c2ccc3oc4c(c3c2)CCCC4)cc1 | 23.7% |
| CCOc1ccc(C(=O)Nc2ccc3c(c2)N(C(C)=O)CCC3)cc1OCC | -15.3% |
| COc1ccc(NS(=O)(=O)c2ccc3c(c2)NC(=O)CCS3)c(OC)c1 | -2.38% |
| CCC(C(=O)Nc1cc(C)ccc1OC)n1nnc(C(=O)OC)c1C(=O)OC (stereo not drawn) | -5.96% |
| CCOc1ccc(C2c3c(oc4cc(C)c(C)cc4c3=O)C(=O)N2c2ccccn2)cc1 (stereo not drawn) | 6.14% |
| COc1cccc(N2CCN(C(=O)c3c4c(nc5ccccc35)C(=O)N(C3CCCCC3)C4)CC2)c1 | -7.53% |

| SMILES | inhibition |
| --- | --- |
| Cc1cc(SCC(=O)Nc2nsc(-c3ccc(C(C)(C)C)cc3)n2)nc2ccccc12 | 8.69% |
| CS(=O)(=O)N1CCCC(C(=O)N2CCN(c3cccc(Cl)c3)CC2)C1 (stereo not drawn) | active: 31.2% |
| COc1ccc(OCc2nc(C#N)c(NCc3ccccc3Cl)o2)cc1 | 10.9% |
| COc1ccc(-c2nc3sc(CCNS(=O)(=O)c4c(C)cc(C)cc4C)c(C)n3n2)cc1 | -10.8% |
| COc1cc(Cl)c(C)cc1Nc1nnc(-n2nc(C)cc2C)c2ccccc12 | 6.64% |
| CCc1cccc(NC(=O)C(Cc2ccccc2)NS(=O)(=O)c2ccc3c(c2)c(=O)n(C)c(=O)n3C)c1 (stereo not drawn) | -7.94% |
| c1cnc(N2CCN(Cc3ccc4c(c3)OCO4)CC2)nc1 | active: 86.6% and active: 88.5% |
| Cc1ccc(NC(=O)CSc2nccn2Cc2ccc3c(c2)OCO3)c(C)c1 | -3.79% |
| Cc1ccc(C(=O)/C=C/c2cn(CC(O)CN3CCCCCC3)c3ccccc23)cc1 (stereo not drawn) | -0.336% |
| CCC1=C(c2ccc(C)cc2)S(=O)(=O)N=C1N1CCC(C(=O)NCc2ccc(C)cc2)CC1 | -2.24% |
| Cc1cc(C)c(NC(=O)CN(C)S(=O)(=O)c2ccc3c(c2)c(=O)n(C)c(=O)n3C)c(C)c1 | 9.55% |
| CCC(C)NC(=O)CCC(=O)NNc1nc2ccccc2c2nc(C)nn12 (stereo not drawn) | 0.742% |
| O=C(Nc1ccc(F)cc1F)N1CCc2c(sc3c2CCCC3)C1c1ccc(F)cc1 (stereo not drawn) | -24.3% |
| Cc1ccc(-c2nn3c(=O)cc(CN4CCN(C(=O)c5ccc(C(C)(C)C)cc5)CC4)nc3s2)cc1 | 2.42% |
| COCCn1c(=NC(=O)c2ccc3c(c2)OCCO3)sc2cc(NC(C)=O)ccc21 | 4.9% |
| CCc1ccc(S(=O)(=O)n2ccnc2)cc1 | -6.59% |
| COc1cc(NS(=O)(=O)c2ccc(NC(=O)c3ccc(OC)c(Br)c3)cc2)nc(OC)n1 | 12.1% |
| CC1(NC(=O)C2CCCCC2)CCS(=O)(=O)C1 (stereo not drawn) | active: 42% |
| CC(C)c1ccc(NC(=O)CN2C(=O)CCc3cc(S(=O)(=O)N4CCOCC4)ccc32)cc1 | 0.444% |
| COc1ccc(C(=O)N2CCN(C(=O)COc3ccc(C)cc3)CC2)cc1OC | -22.7% |
| COc1cc2c(C(=O)N3CCN(c4cc(Cl)ccc4C)CC3)cn(CC(C)C)c(=O)c2cc1OC | -16.4% |
| COc1ccc(S(=O)(=O)NCCc2sc(-c3cccc(F)c3)nc2C)cc1 | -13.7% |
| O=C(Cn1cc(S(=O)(=O)N2CCN(c3ccccc3F)CC2)c2ccccc2c1=O)Nc1ccc(F)cc1Cl | -5.23% |
| CC(C)c1ccc(NC(=O)c2ccc(F)c(S(=O)(=O)N3CCN(c4ccccc4F)CC3)c2)cc1 | 5.68% |

| SMILES | inhibition |
| --- | --- |
| Cc1ccc(C)c(NS(=O)(=O)c2ccc(OCC(=O)N3CCOCC3)cc2)c1 | active: 32.3% |
| Cc1ccc(Cl)cc1N1CCN(S(=O)(=O)c2ccc(-c3cnc(C4CC4)o3)cc2)CC1 | -4.29% |
| COc1ccc(S(=O)(=O)NCCc2sc(-c3ccccc3)nc2C)cc1F | 11.1% |
| CC(=O)c1ccc(NC(=O)c2cc(C3CC3)nc3c2c(C)nn3-c2ccc(C)cc2)cc1 | 5.02% |
| COc1ccc(C(=O)NC2CCN(S(=O)(=O)c3ccccc3F)CC2)cc1 | active: 32.6% |
| COc1ccc(Cl)cc1NC(=O)Cn1nnc(C(=O)NCc2ccc3c(c2)OCO3)c1N | -8.7% |
| COC(=O)c1sccc1S(=O)(=O)N1CCN(c2ccc(C(C)=O)cc2)CC1 | 28.3% |
| Cn1c(=O)c2c(n3c4ccccc4nc13)NC(=O)CC2c1cccc(Cl)c1 (stereo not drawn) | 15.9% |
| CCN(CC)CCOC(=O)c1ccc(NC(=O)c2cc3cccc(OC)c3oc2=O)cc1 | -10.3% |
| Cc1ccc(Cn2c(CN3CCC(C(=O)NCC(C)c4ccccc4)CC3)cc3ccccc32)cc1 (stereo not drawn) | 10.1% |
| Cc1ccc(C)c(N2CCN(C(=O)C3CCCN(S(=O)(=O)c4cccc5nonc45)C3)CC2)c1 (stereo not drawn) | 14.5% |
| Cc1ccc(-c2cc(C(=O)Nc3c(C(=O)c4ccc(C)c(F)c4)oc4ccccc34)no2)cc1 | 3.21% |
| CCOCCc1nn2c(=O)cc(COC(=O)c3cccc(C)c3)nc2s1 | 9.33% |
| CCOC(=O)c1c(NC(=O)CSc2cn(CCNC(=O)c3c(F)cccc3F)c3ccccc23)sc2c1CCCC2 | -10.5% |
| COc1ccc(NC(=O)CSc2nc(-c3ccc(OC)c(OC)c3)[nH]c2-c2ccc(C)cc2)cc1 | -6.78% |
| CCOC(=O)Cc1ccc(NC(=O)N(C(C)C)C2CCN(C(C)=O)CC2)cc1 | 20.3% |
| COc1ccc(NCc2cc3cc4c(cc3n(CC(=O)Nc3ccccc3)c2=O)OCO4)cc1 | 11% |
| O=C(Nc1ccc(Cl)cc1)c1cc(S(=O)(=O)N2CCCc3ccccc32)ccc1F | -1.24% |
| CCOC(=O)c1noc2ncn(Cc3cccc(C#N)c3)c(=O)c12 | 8.86% |
| Cc1cc(Cl)ccc1NC(=O)CN1C(=O)COc2ccc(S(=O)(=O)N3CCC(C)CC3)cc21 | 14.4% |
| O=C(CCCn1c(=O)[nH]c2ccsc2c1=O)N1CCN(c2cccc(C(F)(F)F)c2)CC1 | 7.93% |
| COc1ccccc1CN(Cc1ccco1)c1cnc(S(C)(=O)=O)nc1C(=O)Nc1ccccc1Cl | 3.99% |
| CCOc1ccc(CCNC(=O)CCCc2nnc3n(C)c(=O)c4sccc4n23)cc1OCC | -12.6% |
| Cc1c(C(=O)OC2CCC(C)CC2)[nH]c2c1C(=O)CC(c1ccccc1Cl)C2 (stereo not drawn) | 7.94% |

| SMILES | inhibition |
| --- | --- |
| COc1ccc(OCC(=O)Nc2nc(-c3ccc(Br)cc3)ns2)cc1 | -1.66% |
| O=C(COC(=O)c1ccc(F)cc1F)NC1CC1 | active: 30.9% |
| CCc1cccc(C)c1NC(=O)NC1COc2ccccc2C1 (stereo not drawn) | 4.11% |
| CCNc1nc(NC(C)CC)nc(Oc2ccc(OCC)nn2)n1 (stereo not drawn) | 7.35% |
| CC(=O)N1c2c(cc(Br)cc2S(=O)(=O)Nc2ccc(OC(F)(F)F)cc2)CC1C (stereo not drawn) | -13.7% |
| CCOc1ccc(CNC(=O)Cn2cc3c(n2)-c2c(oc(C(=O)N4CCCC4)c2C)CC3)cc1 | -27.7% |
| CCCC1=Nc2cc(C(=O)NCC(C)c3ccccc3)ccc2Sc2ccccc21 (stereo not drawn) | 3.83% |
| Cn1c(=O)c(C(=O)COC(=O)c2cc(-c3ccccc3)nc3ccccc23)c(N)n(Cc2ccccc2)c1=O | active: 30.6% |
| Cc1ccc(C2c3c(-c4ccccc4O)n[nH]c3C(=O)N2CCc2ccccc2)cc1 (stereo not drawn) | -1.45% |
| CC1CCCN(C(=O)CCS(=O)(=O)c2cc3c(cc2Cl)NC(=O)CO3)C1 (stereo not drawn) | -1.4% |
| COc1cccc(CNC(=O)Cn2nc3c(cc2=O)CCCC3)c1OC | 12.4% |
| COC(=O)c1c(-c2ccc(Cl)cc2)noc1N1CCN(c2cccc(C)c2C)CC1 | -10.7% |
| CCc1cnc2c(c1SCC(=O)Nc1ccc(OC)c(OC)c1)c(=O)n(C)c(=O)n2C | -5.34% |
| C=CCn1c(-c2sc3nc(C)cc(C)c3c2N)n[nH]c1=S | active: 31.6% |
| O=C(NCc1ccc(Cl)cc1)c1ccc2oc(=O)n(Cc3ccccc3)c2c1 | 2.41% |
| CCOC(=O)c1c(O)cc(C)cc1Nc1ccccc1 | active: 32.2% |
| CCOC(=O)Cn1c(=O)oc2cc(S(=O)(=O)N3CCCC(C)C3)ccc21 (stereo not drawn) | -9.3% |
| Cc1nc(-c2cccc(NC(=O)COc3ccc(Cl)cc3)c2)cs1 | active: 70% |
| CCCCn1cc(S(=O)(=O)c2ccc(Cl)cc2)c(=O)c2cc(F)c(N3CCCC(C)C3)cc21 (stereo not drawn) | 19.3% |
| COC(=O)c1c(SC)nc2ccccc2c1OCc1ccc(C)cc1 | -4.12% |
| CCOC(=O)c1c(C)[nH]c(C)c1S(=O)(=O)N1CCCC(C(=O)NCc2ccc(C)cc2)C1 (stereo not drawn) | -5.73% |
